Measured values from PMC12040169 (PLOS Biology, 2025).
The other results are listed elsewhere or left out.

These molecules were tested on T1, C. trachomatis L2/434/Bu expressing GFP (CTL2-GFP). Conditions: total inclusion area; 28.5 h, 10 µM; inhibitor.
T1 construct: L2/434/Bu GFP intracellular growth in HeLa cells
Parameters: species or system HeLa; C. trachomatis total inclusion area by high-content imaging, normalised to DMSO
Procedure, shortened: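 Bulk GFP and resorufin signals were read first. Wells were then fixed, stained with Hoechst and imaged to detect GFP inclusions and host nuclei. MICs followed the previously described calculation.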
With `CC(=O)OCc1ccc(CN2CCCCCC2c2cc(C)no2)o1` (stereo not drawn) [CBK283007] the “% of control remaining” value was 116.199.
In the case of `COc1ccc2[nH]c3c(c2c1)CCNC31CCN(Cc2ccc(S(C)(=O)=O)cc2)CC1` [CBK039753], the “% of control remaining” value is reported as 92.2588.
For `CCCn1c(O)cc(=O)nc1SCC(=O)NCc1ccc(OC)c(OC)c1` [CBK295592], the “% of control remaining” value was 92.5056.
With `COc1ccc(/N=C2\S[C@H]3[C@H]([C@@H](O)[C@H](O)C[C@@H]3C(N)=O)N2Cc2cccs2)cc1` [CBK288943] the “% of control remaining” value was 92.5724.
`Nc1ncc(-c2ccc(C(=O)N3CCOCC3)cc2)nc1C(=O)NC1CCCC1` [CBK149155] was tested, and the “% of control remaining” value was 79.6254.
With `COc1ccc(-c2nnc(SCCC(=O)O)[nH]2)cc1` [CBK300506] the “% of control remaining” value was 109.618.
For `NS(=O)(=O)c1ccc(C(=O)Nc2cnc(-c3ccc(F)cc3)c(-c3ccsc3)n2)cc1` [CBK036998], the “% of control remaining” value was 124.97.
`O=C(CCc1nc2sc3c(c2c(=O)[nH]1)CCCC3)N1CCCC1` [CBK306069] was tested, and the “% of control remaining” value was 51.9255.
In the case of `NC(=O)C1(Cc2ccccc2-c2ccccc2)CCN(C(=O)CCc2ccccc2)CC1` [CBK285595], the “% of control remaining” value is reported as 99.2958.
In the case of `COc1ccc(C(C)C)cc1-c1cncc(N2CCN(c3ccccc3C#N)CC2)n1` [CBK037927], the “% of control remaining” value is reported as 83.5928.
With `Cc1ccc(S(=O)(=O)NCCNc2ccc(C(F)(F)F)cc2[N+](=O)[O-])cc1` [CBK264945] the “% of control remaining” value was 104.532.
`CC(C)[C@H]1CN(Cc2ccco2)CCN1Cc1ccccn1` [CBK284275] was tested, and the “% of control remaining” value was 88.1973.
With `O=c1c2sccc2[nH]c(=S)n1CCc1ccccc1` [CBK288486] the “% of control remaining” value was 94.9331.
In the case of `O=C1c2ccccc2C(=O)N1Cc1ccc(S(=O)(=O)NCc2ccc3c(c2)OCO3)cc1` [CBK264180], the “% of control remaining” value is reported as 108.727.
For `O=c1cc(N2CCCCC2)cnn1Cc1nccs1` [CBK307678], the “% of control remaining” value was 76.1032.
For `OCCCNC(=S)Nc1ccc(Cl)cc1Cl` [CBK265264], the “% of control remaining” value was 105.405.
In the case of `COc1ccc(-n2nc3cc(C)c(NC(=O)c4ccc(-c5ccc([N+](=O)[O-])cc5OC)o4)cc3n2)cc1` [CBK263766], the “% of control remaining” value is reported as 113.042.
For `CCS(=O)(=O)N1CCC2(C=Cc3cc(F)ccc3O2)CC1` [CBK284747], the “% of control remaining” value was 92.9564.
For `CCCC1COC(c2ccc(C#N)cc2)OC1` (stereo not drawn) [CBK033941], the “% of control remaining” value was 75.1792.
In the case of `COc1ccccc1C(=O)N1CCC(Cc2ccc(-c3ccccc3)cc2)(C(N)=O)CC1` [CBK285774], the “% of control remaining” value is reported as 101.224.
`Cc1nc2c(OCC(=O)c3ccc(Cl)cc3Cl)cccn2c1N(C)CC1CC1` [CBK147294] was tested, and the “% of control remaining” value was 107.025.
`Cn1nc(C2CCN(C(=O)C3CCCC3)CC2)c2cccnc21` [CBK284899] was tested, and the “% of control remaining” value was 56.7332.
For `O=C(NCC(O)c1ccccc1)c1ccc(Cl)c(S(=O)(=O)N2CCCCC2)c1` (stereo not drawn) [CBK269197], the “% of control remaining” value was 71.2395.
`CC(c1ccc(F)c(F)c1)N(C)C(=O)CN1CCCc2occc2C1` (stereo not drawn) [CBK304456] was tested, and the “% of control remaining” value was 42.5253.
For `CCOC(=O)c1c(C)n(-c2ccc(OC)cc2)c2ccc(O)c(CN(C)C)c12` [CBK261609C], the “% of control remaining” value was 99.6711.
With `CC(=O)Nc1ccc(CN2CCCCCC2c2cc(C)no2)cc1` (stereo not drawn) [CBK285415] the “% of control remaining” value was 102.362.
For `CCOc1ccc(-c2cncc(Nc3ccc(C#N)cc3)n2)cc1` [CBK065862], the “% of control remaining” value was 83.2839.
`COc1ccccc1-c1noc(CCCC(=O)Nc2cccnc2)n1` [CBK268848] was tested, and the “% of control remaining” value was 98.3145.
In the case of `CCCCn1c(SCC(=O)NCC2(c3ccc4c(c3)OCCO4)CCCC2)n[nH]c1=O` [CBK296736], the “% of control remaining” value is reported as 115.611.
With `Cc1sc2ncn(Cc3c(Cl)cccc3Cl)c(=O)c2c1C` [CBK265355] the “% of control remaining” value was 92.8922.
With `CCn1cc(C2CN(S(=O)(=O)c3c(C)c(C)cc(C)c3C)CCO2)cn1` (stereo not drawn) [CBK306171] the “% of control remaining” value was 53.1835.
For `C[C@H]1CN([C@H]2C[C@@H](O)[C@@H](CO)O2)C(=O)NC1=O` [CBK201206], the “% of control remaining” value was 90.1031.
For `CCc1[nH]c2ccc(C(=O)NCCn3ccnc3C)cc2c1C` [CBK282505], the “% of control remaining” value was 111.778.
With `Cc1cccc(C)c1N(C1CCNCC1)S(=O)(=O)c1ccc2c(c1)CCO2` [CBK153668T] the “% of control remaining” value was 106.5.
`c1cncc(-c2cncc(NCCc3c[nH]c4ccccc34)n2)c1` [CBK065186] was tested, and the “% of control remaining” value was 91.8411.
`NC(=O)CSc1nnc(-c2cc3ccccc3o2)n1Cc1ccccc1` [CBK268964] was tested, and the “% of control remaining” value was 86.6173.
For `Cc1ccc(CN2C(=O)CC(Sc3ncccc3C(=O)O)C2=O)cc1` (stereo not drawn) [CBK270006], the “% of control remaining” value was 85.5825.
`CCOc1ccccc1NC(=O)NC(=O)C1CCN(C(C)c2ccc(Cl)cc2)CC1` (stereo not drawn) [CBK034899] was tested, and the “% of control remaining” value was 92.5028.
For `Nc1nc(CN2C(=O)c3ccccc3C2=O)n[nH]1` [CBK266655], the “% of control remaining” value was 90.864.
`Cc1ccn(CCNC(=O)c2cc(-c3cccs3)no2)n1` [CBK282679] was tested, and the “% of control remaining” value was 119.061.
For `CN(C)c1cccc(-c2cncc(NCCCO)n2)c1` [CBK065619], the “% of control remaining” value was 66.3923.
`CSc1nc(C)c(CCC(=O)Nc2ccc(N3CC(C)OC(C)C3)nc2)c(C)n1` (stereo not drawn) [CBK298266] was tested, and the “% of control remaining” value was 100.563.
`O=C(O)C(c1c[nH]c2ccccc12)N1CCc2ccccc2C1` (stereo not drawn) [CBK286664] was tested, and the “% of control remaining” value was 63.46.
For `COc1cc(C(C[N+](=O)[O-])c2c(C)[nH]c3ccccc23)ccc1O` (stereo not drawn) [CBK115317], the “% of control remaining” value was 97.1952.
`CC(C)C(=O)NCCn1nc(-c2ccccc2F)cc1CN(C)C` [CBK281693] was tested, and the “% of control remaining” value was 94.9767.
`CCn1nc(C)c(-c2cncn2Cc2ccccc2CN(C)C)c1C` [CBK281998] was tested, and the “% of control remaining” value was 94.1954.
In the case of `COc1ccc2c3c(cc(Cl)cc13)CC(N)C2` (stereo not drawn) [CBK016450C], the “% of control remaining” value is reported as 45.5037.
`CCNC(=O)Nc1c[nH]nc1C1CCCN(c2cccc(F)c2C#N)C1` (stereo not drawn) [CBK306406] was tested, and the “% of control remaining” value was 77.7888.
For `Cc1nn(-c2ccccn2)c(C)c1[C@@H]1C=C[C@@H](NS(C)(=O)=O)C1` [CBK289169], the “% of control remaining” value was 117.241.
For `CC(=O)Nc1cccc(NC(=O)c2ccc(CN3CCCCC3)cc2)c1` [CBK295596], the “% of control remaining” value was 101.363.
In the case of `CC(=O)Nc1ccc(S(=O)(=O)N2CCCCC2C(=O)O)cc1` (stereo not drawn) [CBK265241], the “% of control remaining” value is reported as 72.1237.
For `FC(F)(F)c1ccc(SCc2ccc(Cl)c(Cl)c2)nc1` [CBK103713], the “% of control remaining” value was 82.0116.
With `Cc1nc(NC(=O)Cn2nc(N3CCSCC3)ccc2=O)sc1C` [CBK307622] the “% of control remaining” value was 84.8755.
With `COC(=O)c1cc(=O)c2ccccc2o1` [CBK000064] the “% of control remaining” value was 32.3596.
In the case of `COc1ccc(-n2c(=O)[nH]cc(C(=O)Nc3cc(C)ccc3OC)c2=O)cc1` [CBK287548], the “% of control remaining” value is reported as 82.1585.
For `N/C(=N\OC(=O)c1cc(-c2ccccc2)nc2ccccc12)c1cccnc1` [CBK265106], the “% of control remaining” value was 136.031.
`CC(C)(C)OC(=O)N1CCC(Oc2nccnc2Cl)CC1` [CBK067386] was tested, and the “% of control remaining” value was 107.41.
With `CCSc1nnnn1-c1cccc(NC(C)=O)c1` [CBK305511] the “% of control remaining” value was 31.8278.
With `O=C(c1ccncc1)N1CCCCC1c1nc2ccccc2[nH]1` (stereo not drawn) [CBK281641] the “% of control remaining” value was 108.235.
`COc1ccc(S(=O)(=O)N2CCSC2)cc1C` [CBK097882] was tested, and the “% of control remaining” value was 93.2856.
With `COC(=O)[C@H]1CCc2ccccc2N1C(C)=O` [CBK284256] the “% of control remaining” value was 90.2395.
In the case of `CCN(CC)C(=O)/C=C/c1ccc(C(C)C)cc1` [CBK149636], the “% of control remaining” value is reported as 94.2534.
With `O=C(c1ccccc1Cl)c1cc(Cl)ccc1-n1ccnc1` [CBK005151] the “% of control remaining” value was 80.1634.
In the case of `Cc1ccc(COc2ccc(/C=N/NC(=O)CN3CCCCC3)cc2)cc1` [CBK262227], the “% of control remaining” value is reported as 78.9905.
With `O=C(NCCc1nc2ccccc2[nH]1)Nc1ccccc1` [CBK261803] the “% of control remaining” value was 92.2153.
`CC(Oc1ccc(Br)cc1Cl)C(=O)NCCCN1CCCC1=O` (stereo not drawn) [CBK268138] was tested, and the “% of control remaining” value was 76.5397.
In the case of `N#CC1=C(SCc2ccccc2)SC(c2ccc(O)c(O)c2)NC1=O` (stereo not drawn) [CBK293972], the “% of control remaining” value is reported as 68.095.
For `Cc1cc2c(cc3c(=O)n(CCN4CCCC4)nc(C)n32)s1` [CBK284126], the “% of control remaining” value was 75.9447.
In the case of `COc1cc2cc(C(=O)N3CCN(Cc4ccc5c(c4)OCO5)CC3)c(=O)oc2cc1OC` [CBK074790], the “% of control remaining” value is reported as 84.0231.
In the case of `CN(C)CC(C)(C)CNC1CCN(C)CC1` [CBK261926], the “% of control remaining” value is reported as 105.594.
`Cc1nc(CCCn2cnc3cnccc3c2=O)sc1C` [CBK306610] was tested, and the “% of control remaining” value was 54.2768.
`O=C(NCCc1ccccc1)Nc1cc2cccnc2c(Br)n1` [CBK063283] was tested, and the “% of control remaining” value was 54.2928.
With `O=S(=O)(c1cccc2nsnc12)N1CCCN(Cc2ccsc2)CC1` [CBK038570] the “% of control remaining” value was 95.2673.
In the case of `Fc1ccc(OCCNCCC2NCCc3c2[nH]c2ccccc32)cc1` (stereo not drawn) [CBK066970], the “% of control remaining” value is reported as 95.8102.
`COc1ccc(-n2ncc(-c3ccc(C(F)(F)F)cc3)n2)cc1` [CBK112688] was tested, and the “% of control remaining” value was 107.798.
For `Cc1cc(=O)n2c(-c3ccc(NS(=O)(=O)c4cccnc4)cc3)csc2n1` [CBK287837], the “% of control remaining” value was 113.107.
With `Cc1ccc(C(C)C)c(OCC(=O)Nc2ccc(F)c([N+](=O)[O-])c2)c1` [CBK263771] the “% of control remaining” value was 66.9523.
In the case of `O=C(NCCCN1CCOCC1)c1ccc(/C=N/O)nc1` [CBK264468], the “% of control remaining” value is reported as 113.231.
In the case of `Cn1cc(-c2nc(C3COCCN3Cc3ccc(F)cc3)no2)cn1` (stereo not drawn) [CBK305391], the “% of control remaining” value is reported as 64.9717.
In the case of `NC(=O)c1ccc(-c2cncc(N3CCN(CCO)CC3)n2)cc1` [CBK065392], the “% of control remaining” value is reported as 98.5828.
`O=C(NCCn1cccn1)c1ncoc1-c1ccc(F)cc1` [CBK282355] was tested, and the “% of control remaining” value was 107.031.
